Assay results: PubChem BioAssay (NCI)
“And” between values parts separate entries of the source, which are not always exact repeats. Identical values can stand only once.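 Cells were grown in 96-well plates and exposed to each compound for 48 hours at five concentrations; endpoints were interpolated linearly between bracketing concentrations, or set to the highest concentration if not reached. At the GI50, growth is halved. TGI is the concentration that stops growth completely.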

Test system: NCI-H322M lung
Assay: NCI-60 cell line screen, 48 h

Row | SMILES | TGI | GI50
1 | O=C(CSc1nc2ccc([N+](=O)[O-])cc2s1)c1ccc2ccccc2c1 | > 100 µM | –
2 | CN(c1ncccc1CNc1nc(Nc2ccc3c(c2)CC(=O)N3)ncc1C(F)(F)F)S(C)(=O)=O | 17.3 µM and > 10 µM | 2.24 µM and 3.03 µM
3 | O=C1C2Nc3ccccc3SC2C(=O)N1c1ccc(Br)cc1 (configuration not stated) | > 100 µM | –
4 | COc1ccc(C2N(c3ccc(F)cc3)C(=O)N3C(c4ccc(OC)cc4)N(c4ccc(F)cc4)C(=O)N23)cc1 (configuration not stated) | > 100 µM | –
5 | N#CC(C(=O)c1cccnc1Cl)c1nc2cc(C(F)(F)F)ccc2s1 (configuration not stated) | > 100 µM | –
6 | Cc1c(Cl)cccc1NC(=O)C(=O)C(C(=O)c1ccccc1-c1ccccc1)C1OC(=O)c2ccccc21 (configuration not stated) | 46.9 µM | –
7 | Cc1nc(-n2nc(-c3ccccc3)cc2-c2ccccc2)sc1C(=O)/C=C/c1ccc(/C=C/C(=O)c2sc(-n3nc(-c4ccccc4)cc3-c3ccccc3)nc2C)cc1 | 73.7 µM | –
8 | O=c1[nH]c2nnc(COc3ccc(Cl)cc3Cl)n2nc1Cc1ccccc1 | > 100 µM | –
9 | O=c1c2c(=NCCN3CCCC3)cc3c(=O)n(CCCN4CCOCC4)c(=O)c4c(-c5ccc(CN6CCCC6)cc5)cc(c(O)n1CCCN1CCOCC1)c2c4-3 | 0.306 µM | 0.0371 µM
10 | COc1ccc(N=NC(=O)NC(Cc2ccccc2)C(=O)O)cc1 (configuration not stated) | > 100 µM | –
11 | COC(=O)C(C(=O)C(=O)Nc1c(C)cccc1C)c1cnc2ccccc2n1 (configuration not stated) | > 100 µM | –
12 | CC(=O)C1=C(C)N2C(=NC3=C(CCc4ccccc43)C2c2ccc(F)cc2)S1 (configuration not stated) | > 100 µM | –
13 | COC(=O)/C(C#N)=C(\Nc1ccccc1)N1CCOCC1 | > 100 µM | –
14 | COc1cc(C2Cc3ncccc3-c3[nH]c(=O)c4cccnc4c32)cc(OC)c1OC (configuration not stated) | > 100 µM | 6.58 µM
15 | O=P12N(CCN1c1ccccc1)CCN2c1ccccc1 | > 100 µM | –
16 | COCC1CCCN1c1ccc(C=N/C(C#N)=C(\N)C#N)cc1 (configuration not stated) | > 100 µM | 58.5 µM
17 | OCCN1CCN(CCCN2c3ccccc3Sc3ccc(Cl)cc32)CC1 | 20.8 µM | 7.89 µM
18 | CC(=O)Nc1ccc2c(c1)C(c1ccccc1Cl)=Nc1c(n[nH]c1C)N2 | > 25 µM | > 22.2 µM
19 | Cc1c(N2C(=O)/C(=C/c3ccc(Cl)cc3)N=C2c2ccccc2)c(=O)n(-c2ccccc2)n1C | > 100 µM | –

Row | SMILES | TGI | GI50
20 | N#CCCN(c1ccc(C=Nc2ccccc2)cc1)S(=O)(=O)c1ccccc1 | > 100 µM | –
21 | Cc1ccc(NC(Nc2ccc(C)cc2C)=C(C(Cl)=C(Cl)Cl)[N+](=O)[O-])c(C)c1 | 33.8 µM | –
22 | OC(c1ccc(F)cc1)C(F)(F)c1nc2ccccc2o1 (configuration not stated) | > 100 µM | –
23 | CCCCCCCCCCCCCCCCCc1cccc(OCOCCOC)c1C(=O)O | 35.7 µM | –
24 | C=C1CC[C@@H]2[C@](C)(COC(C)=O)[C@H](OC(C)=O)CC[C@@]2(C)[C@@H]1CC(Nc1ccc(S(=O)(=O)NC(C)=O)cc1)C1=CCOC1=O (some centres not stated) | 20.3 µM | 10.3 µM
25 | Oc1ccc(O)c(CNc2ccc(C(O)C(F)(F)F)cc2)c1 (configuration not stated) | > 100 µM | –
26 | COC(=O)CCC(NC(=S)N/N=C(\C)c1cnc2ccccc2n1)C(=O)OC (configuration not stated) | > 100 µM | –
27 | CCN(CCCN(C)C)Cc1cc(I)cc(C)c1O | 85.3 µM | 28.3 µM
28 | CN(C)CCCc1cccc2[nH]c3c(c12)CN(C)CC3 | > 100 µM | –
29 | Nc1ccc2c(O)cc(=O)[nH]c2n1 | > 100 µM | –
30 | Nc1ncnc2c1ncn2[C@]1(CO)C=C(CO)C(O)C1O (some centres not stated) | > 100 µM | –
31 | c1cc(NNc2cccc(-c3nn[nH]n3)c2)cc(-c2nn[nH]n2)c1 | > 100 µM | –
32 | Nc1nccc(-c2c(-c3ccc(F)cc3)ncn2C2CCNCC2)n1 | > 25 µM | 8.44 µM and 5.47 µM
33 | O=c1[nH]c(Cc2ccccc2)nc2c1sc1nc3ccccc3n12 | > 100 µM | –
34 | COC(=O)C1CCC(=O)N1CN(C(C)=O)c1ccccc1Cl (configuration not stated) | > 100 µM | –
35 | NC1=CN(CCCO)C2=N/C(=C\c3ccccc3)C(=O)N12 | > 100 µM | –
36 | Cc1ccc(S(=O)(=O)NC(=O)NCCc2cnc[nH]2)cc1 | > 100 µM | –
37 | CCOC(=O)c1cc(C(=O)c2cc(OC)c(OC)c(OC)c2)n2ncccc12 | > 100 µM | 0.694 µM
